This is an account of results in the supplement of paper PMC3334620.

The full ranking holds about 33,000 sequences; the median of “E-score (-0.5 to 0.5)” is about -0.043, and the highest 2% start at about 0.37. Some of the results follow.

The test concerns the target T1, Upc2 (UniProt Q12151).
T1 sequence: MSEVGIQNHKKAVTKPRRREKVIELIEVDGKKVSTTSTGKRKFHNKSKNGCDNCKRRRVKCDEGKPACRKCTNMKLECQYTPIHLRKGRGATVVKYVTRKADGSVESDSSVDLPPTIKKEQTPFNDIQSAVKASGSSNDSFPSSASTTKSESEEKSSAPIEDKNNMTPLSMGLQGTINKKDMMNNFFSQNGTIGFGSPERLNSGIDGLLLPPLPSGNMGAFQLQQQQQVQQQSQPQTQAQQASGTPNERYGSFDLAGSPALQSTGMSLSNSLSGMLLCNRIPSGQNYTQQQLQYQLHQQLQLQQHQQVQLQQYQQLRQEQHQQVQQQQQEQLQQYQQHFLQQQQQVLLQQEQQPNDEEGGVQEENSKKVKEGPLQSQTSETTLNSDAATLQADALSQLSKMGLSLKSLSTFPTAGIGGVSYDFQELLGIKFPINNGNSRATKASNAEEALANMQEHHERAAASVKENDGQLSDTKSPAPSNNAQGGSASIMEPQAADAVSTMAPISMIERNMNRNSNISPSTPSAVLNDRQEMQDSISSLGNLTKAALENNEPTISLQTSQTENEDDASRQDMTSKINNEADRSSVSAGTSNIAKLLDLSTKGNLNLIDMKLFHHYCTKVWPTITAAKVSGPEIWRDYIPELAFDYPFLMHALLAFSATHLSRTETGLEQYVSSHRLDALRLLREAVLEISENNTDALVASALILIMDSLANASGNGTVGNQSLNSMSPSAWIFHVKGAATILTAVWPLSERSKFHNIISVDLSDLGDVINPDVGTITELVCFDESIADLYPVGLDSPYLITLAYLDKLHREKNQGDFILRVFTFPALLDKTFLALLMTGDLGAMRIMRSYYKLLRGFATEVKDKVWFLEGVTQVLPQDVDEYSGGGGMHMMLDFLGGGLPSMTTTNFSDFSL
Kind of test: PBM E-score (8-mer binding enrichment) (E-score (-0.5 to 0.5)); higher = stronger / more preferred TF binding; most listed sequences are background and not binding sites. To be noted: protein concentration: 200 nM; construct: GST-full length. The procedure, abridged: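 The E-score, a modified Wilcoxon-Mann-Whitney statistic, was computed by the Universal PBM Analysis Suite for every ungapped eight-base word pooled with its reverse complement. Scans behind it were normalised with masliner after bound GST-tagged yeast transcription factors were detected with fluorescent anti-GST. The proteins, at about 100-200 nM, had been applied to universal all-10-mer Agilent arrays made double-stranded by primer extension.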
In the case of AGTGGTCG, the “PBM E-score” value amounted to 0.103.

GGAGTCCC: the “PBM E-score” value is -0.172.

Take GGCTACTA: the “PBM E-score” value was -0.0652.

On to CTCGATGC, for which the “PBM E-score” value was -0.188.

Turning to GCCGAGAC, the “PBM E-score” value was -0.0867.

For CACTCCGC, the “PBM E-score” value is -0.133.

GCACTCCA: the “PBM E-score” value was -0.195.

Take ACTTTCAG: the “PBM E-score” value is -0.184.

In the case of CATATCTC, the “PBM E-score” value was -0.176.

For ACGATCAT, the “PBM E-score” value came out at 0.3.

For GGTACGAC, the “PBM E-score” value stood at 0.475.

Take CATCCCAA: the “PBM E-score” value is -0.182.

Regarding CAGACAGA, the “PBM E-score” value was -0.125.

As for AGCCCAAT, the “PBM E-score” value is -0.0729.

As for CCACTGGG, the “PBM E-score” value is -0.293.

CCTTTGTA: the “PBM E-score” value is -0.134.

For AGGCAATC, the “PBM E-score” value is -0.118.

With ACTTTTCA, the “PBM E-score” value was -0.0685.

Consider GTCGGCAC, for which the “PBM E-score” value was -0.162.

Take ACGAATGC: the “PBM E-score” value came out at 0.285.

AAGTACGT: the “PBM E-score” value was determined as 0.154.

As for CGGGATCA, the “PBM E-score” value was -0.0211.

On to ATCGCTTG, for which the “PBM E-score” value stood at 0.0802.

As for TATGGAAA, the “PBM E-score” value was 0.039.

On to CGGACATC, for which the “PBM E-score” value was -0.0586.

Regarding CGCCGAAA, the “PBM E-score” value is 0.0504.

Take CGCGGACC: the “PBM E-score” value is -0.165.

In the case of AGTGGATC, the “PBM E-score” value was -0.0691.

Regarding ATATGGCG, the “PBM E-score” value worked out at 0.0195.

Regarding GGTCAAGA, the “PBM E-score” value is -0.293.

In the case of CAGGGTAA, the “PBM E-score” value is -0.14.

For the sequence CCTACTAG, the “PBM E-score” value was 0.0192.

On to CAGGATCA, for which the “PBM E-score” value was -0.152.

Consider AGCACACG, for which the “PBM E-score” value was -0.00629.

As for AAAATAAC, the “PBM E-score” value is -0.00089.

CACGTGAA: the “PBM E-score” value amounted to 0.148.

As to ACCTACAT, the “PBM E-score” value is -0.0971.

For the sequence CGCAAGAG, the “PBM E-score” value is -0.107.

For the sequence GGGGCTAC, the “PBM E-score” value was determined as 0.00857.

Regarding ACGGTACT, the “PBM E-score” value was 0.0352.

Consider GGATAGAC, for which the “PBM E-score” value was -0.0704.

On to AACATGAT, for which the “PBM E-score” value was -0.106.

For CACGAACC, the “PBM E-score” value is 0.101.

On to AAGCGATC, for which the “PBM E-score” value turned out to be 0.228.

For the sequence TAATCCTA, the “PBM E-score” value was -0.0162.

As to AAACACAC, the “PBM E-score” value was found to be 0.118.

In the case of AAAACCCG, the “PBM E-score” value worked out at 0.0883.

With CTATTCAC, the “PBM E-score” value was -0.0816.

As for AAGAGTGT, the “PBM E-score” value is -0.123.

Consider CAAGAAGA, for which the “PBM E-score” value is -0.326.

GGGTTAGA: the “PBM E-score” value was -0.23.

As to CATCAACG, the “PBM E-score” value turned out to be 0.0394.

As for ACATCACT, the “PBM E-score” value is 0.0925.

On to GATAGGAC, for which the “PBM E-score” value is -0.289.

Consider TGGTACCA, for which the “PBM E-score” value was -0.203.

For the sequence ACGACATG, the “PBM E-score” value worked out at 0.336.

In the case of CAGCAATC, the “PBM E-score” value is -0.0209.

Take GCTGGGGA: the “PBM E-score” value was -0.149.

Consider CTCGCACA, for which the “PBM E-score” value was determined as 0.27.

Turning to CTGACAGC, the “PBM E-score” value is -0.144.

On to GCATTACA, for which the “PBM E-score” value was -0.143.

For CAAAAACC, the “PBM E-score” value is 0.0158.

On to AACTAAGT, for which the “PBM E-score” value was -0.0887.

Regarding CCCTGCAG, the “PBM E-score” value is -0.163.

Turning to CCTTCACG, the “PBM E-score” value was determined as 0.0487.

As for GGCCAAGA, the “PBM E-score” value is -0.29.

For the sequence CGTGAGAG, the “PBM E-score” value was -0.333.

For CCAAAGTC, the “PBM E-score” value is -0.225.

ATGTGTCC: the “PBM E-score” value was -0.136.

As for GGCTGGAA, the “PBM E-score” value is -0.231.

As for CGTTTTGC, the “PBM E-score” value turned out to be 0.144.

Regarding ACGAGTTG, the “PBM E-score” value amounted to 0.354.

For the sequence ACGCGTTA, the “PBM E-score” value amounted to 0.14.

Consider GTTTATCA, for which the “PBM E-score” value was 0.197.

AGAGACTG: the “PBM E-score” value was -0.131.

Regarding AGTTAGAT, the “PBM E-score” value was -0.207.

As to ATCACCGC, the “PBM E-score” value turned out to be 0.0954.

For the sequence ACCGAGCA, the “PBM E-score” value turned out to be 0.16.

For ACTCGCCA, the “PBM E-score” value is -0.0888.

GGAATGCA: the “PBM E-score” value is -0.0265.

CTTAGAAA: the “PBM E-score” value is -0.115.

On to CTGCTCGC, for which the “PBM E-score” value was 0.0814.

With CTGGATAC, the “PBM E-score” value was found to be 0.145.

As for CGCGCGGA, the “PBM E-score” value came out at 0.0555.

For the sequence CTCGCCTC, the “PBM E-score” value was -0.219.

In the case of AACCTCGG, the “PBM E-score” value turned out to be 0.0542.
